In the supplement of paper PMC10126150:
Values marked as one replicate rest on one cluster of the flow cell; about a third of the high ones do not repeat.

Tested on: ATP
Experiment: switch fluorescence ratio, 500 uM ATP over buffer (Cy3 cluster intensity, sum of 5 cycles each) (fold (ratio)); higher = stronger signal-on switching upon ATP binding; sequences stand for … in TCGTCGGCAGCGTCAGATGTGTATAAGAGACAGTTTTTTTTTTTTTTTTTTTTTTTTT…TC
Conditions: aptamer strand: ATP DNA aptamer (quencher-CACCTGGGGGAGTATTGCGGAGGAAGG + anchor), 100 nM annealed; ATP concentration: 500 uM; one replicate
Procedure, shortened: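 Exposure to 500 uM ATP lasted 15 min at 22 °C before imaging, and a selection-buffer image was taken beforehand, for Cy3-labelled switching-strand clusters on a modified Illumina MiSeq flow-cell annealed to 100 nM quencher-labelled ATP aptamer. Five buffer/ATP cycles were run with NaOH stripping and re-annealing between them. The fluorescence ratio per cluster is summed target-cycle over summed buffer-cycle Cy3 intensity, averaged per switch-domain sequence. Clusters outside 100-1000 RFU were excluded.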

AGCTTATAAA
switch fluorescence ratio: 1.04

GGGACTCAAA
switch fluorescence ratio: 0.961

GTTGTTCTAG
switch fluorescence ratio: 0.979

AGGCTATCAT
switch fluorescence ratio: 0.933

TAATATCGAG
switch fluorescence ratio: 0.957

CGGACCTGA
switch fluorescence ratio: 1.16

ACCATTCGCG
switch fluorescence ratio: 1.01

ACTTTGGATG
switch fluorescence ratio: 0.96

ATGCTATGTC
switch fluorescence ratio: 1.02

ATTGATCAGA
switch fluorescence ratio: 1.02

ATAACTATTT
switch fluorescence ratio: 0.979

TAGCGGTTGA
switch fluorescence ratio: 1

TGCCCGTTGT
switch fluorescence ratio: 0.996

AAGCGGCAGG
switch fluorescence ratio: 0.995

ATGTCTGGCG
switch fluorescence ratio: 0.99

TTCTCGCATT
switch fluorescence ratio: 1.51

TACCTGACAA
switch fluorescence ratio: 1.31

ACCATTTTGT
switch fluorescence ratio: 1.02

ACCATGTTCG
switch fluorescence ratio: 1.03

GATGTTTGAA
switch fluorescence ratio: 1.01

AAGGAGGAAG
switch fluorescence ratio: 1

TTGTGTTGT
switch fluorescence ratio: 1.02

AAATGTGGA
switch fluorescence ratio: 1.02

TTGCACTTGG
switch fluorescence ratio: 1.01

GATGGGTTT
switch fluorescence ratio: 0.986

AGGGCACCCC
switch fluorescence ratio: 0.966

AAAAGCCTGA
switch fluorescence ratio: 1.06

ATTATACTGC
switch fluorescence ratio: 0.998

CTTCTAACCC
switch fluorescence ratio: 1.04

CATTTCCGAC
switch fluorescence ratio: 1.87

ATCATCATCT
switch fluorescence ratio: 1.02

AAGTTAGAGC
switch fluorescence ratio: 0.99

TCCATTAACG
switch fluorescence ratio: 1.02

TCCATCACCC
switch fluorescence ratio: 1.05

GACCAGTGAG
switch fluorescence ratio: 1.04

ATTAGTCAGT
switch fluorescence ratio: 1.02

GGGTCTCTGG
switch fluorescence ratio: 0.965

ACGACAACTC
switch fluorescence ratio: 1.4

AGTATAAAGC
switch fluorescence ratio: 0.995

AATTCAGAA
switch fluorescence ratio: 0.966

CGCGGGACCG
switch fluorescence ratio: 0.985

GACTATAAAA
switch fluorescence ratio: 0.951

CGCGGCAGCT
switch fluorescence ratio: 0.986

CGGATTACCA
switch fluorescence ratio: 0.978

TATATAGGCT
switch fluorescence ratio: 1.03

TACTGAAAGG
switch fluorescence ratio: 1.01

TGCGCACTTA
switch fluorescence ratio: 1.01

GGTTAAAAAC
switch fluorescence ratio: 0.923

AATCCAGGCT
switch fluorescence ratio: 0.98

TCTTAAGTGT
switch fluorescence ratio: 1

CCATTAGTGA
switch fluorescence ratio: 1.05

AGCAAGAACT
switch fluorescence ratio: 1.52

GAAAGATTTC
switch fluorescence ratio: 0.993

GAATGTCTTT
switch fluorescence ratio: 0.987

CCAGGTAAA
switch fluorescence ratio: 1.01

CCTGTACCTA
switch fluorescence ratio: 1.07

AACCCTAAGC
switch fluorescence ratio: 1.02

CCTTTTTGCC
switch fluorescence ratio: 0.972

CGCGGGTTTA
switch fluorescence ratio: 1.04

ATCTGGTGGT
switch fluorescence ratio: 0.939

AGGAAAAATC
switch fluorescence ratio: 1.02

CATCGTAGTG
switch fluorescence ratio: 0.998

GCGAGCAGGG
switch fluorescence ratio: 1.04

TGTTTGTGG
switch fluorescence ratio: 0.967

TATTTCCAGG
switch fluorescence ratio: 1.23

TAGGATAGCA
switch fluorescence ratio: 1

TTCTGAGTTA
switch fluorescence ratio: 1

CATTGACTCA
switch fluorescence ratio: 1.02

TGACTCAACT
switch fluorescence ratio: 1.05

GCGCATCATC
switch fluorescence ratio: 1.34

AAGGTAGTCA
switch fluorescence ratio: 0.981

GATCGCGGTT
switch fluorescence ratio: 0.961

CTCCATAACT
switch fluorescence ratio: 1.16

GGGATGTGTC
switch fluorescence ratio: 1.01

TGATTCGCCT
switch fluorescence ratio: 1.09

GGGAAGTGAT
switch fluorescence ratio: 1.02

GGCTGGT
switch fluorescence ratio: 0.994

GACCTAACAC
switch fluorescence ratio: 1.15

AATAATGGTA
switch fluorescence ratio: 0.995

CTGTTATACG
switch fluorescence ratio: 1.1

CTGGTTTTG
switch fluorescence ratio: 1.05

AAAATGTGCC
switch fluorescence ratio: 0.995

GTTCAAGATG
switch fluorescence ratio: 0.962

GCCCATCGAT
switch fluorescence ratio: 0.967

GGTCAGACGG
switch fluorescence ratio: 0.98

TGAATCGTCT
switch fluorescence ratio: 1.11

GCATCCTTTA
switch fluorescence ratio: 1.04

CTGCGGTGTT
switch fluorescence ratio: 0.985

CCCGGCGCGT
switch fluorescence ratio: 1.3

TTACCTTTTC
switch fluorescence ratio: 1.1

GAGTCGGAAA
switch fluorescence ratio: 1.02

CGTTGGCTAT
switch fluorescence ratio: 1.01

ATTTTTGCAA
switch fluorescence ratio: 1.11

GGTGCACCAG
switch fluorescence ratio: 0.976

TTAGGCGACT
switch fluorescence ratio: 0.983

GTTTTAGGTC
switch fluorescence ratio: 0.956

CCTAGGCGCT
switch fluorescence ratio: 1.14

ATCGTTCATC
switch fluorescence ratio: 1.04

AGGACTTCAT
switch fluorescence ratio: 1.02

CACTGGTGAT
switch fluorescence ratio: 1

AACAGAAACA
switch fluorescence ratio: 0.997
